Variants at the floor of the assay are shown more often than the library holds them.
B1: TPR 5TU (parent)
chain: GGAUCUUCUCGAUCUAACAAAAAAGACAAAUCUGCCACAAAGCUUGAGAGCAUCUUCGGAUGCAGAGGCGGCAGCCUUCGGUGGCGCGAUAGCGCCAACGUUCUCAACUAUGACACGCAAAACGCGUGCUCCGUUGAAUGGAGUUUAUCAUG

Variants of: B1
Test: polymerase ribozyme fitness, log enrichment relative to wild type (log ratio); higher = more active; in vitro selection for triplet polymerase activity
Procedure, shortened: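 A heterodimeric triplet polymerase ribozyme had each of its subunits mutagenized by PCR into a library, which was transcribed. One round of in vitro selection, done in triplicate, annealed each library with a biotinylated primer, its partner subunit and triplets, then incubated it frozen at −7 °C before gel excision of extended constructs, streptavidin-bead capture and RT-PCR. Fitness is the logarithm of genotype enrichment relative to wild-type enrichment, based on Illumina sequencing of inputs and outputs and inverse-variance-weighted replicate averages. A base-2 logarithm is used, and genotypes were kept only with ≥10 input reads and ≥1 read per output.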

Going from GGAUCUUCUCGAUCUAACAAAAAAGACAAAUCUGCCACAAAGCUUGAGAGCAUUUUAGGAUGCAGAGGCGGCAGUCUUCGGUGGCGCGAUGGCGCCAACGUUCUCAACUAUGACACGCAAAACGCGUGCUCCGUUGAAUGGAGUUUAUCAUG [C54U C57A C75U A91G] to GGAUCUUCUCGAUCUAACAAAAAAGACAAAUCUGCCACAAAGCUUGAGAGCAUUUUAGGAUGCAGAGGCGGCAGCCUUCGGUGGCGCGAUAGCGCCAACGUUCUCAACUAUGACACGCAAAACGCGUGCUCCGUUGAAUGGACCUUAUCAUU [C54U C57A G143C U144C G152U], the “polymerase ribozyme fitness (log ratio)” value falls from -3.62 to no more than -4.2.

GGAUCUUCUCGAUCUAACAAAAAAGACAAAUCUGCCACAAAGCUUGAGAGCAUUUUCGGAUGCAGAGGUGGCUGCCUUCGGUGGCGCGAUAUCGCCAACGUUCUCAACUAUGAGACGCAAAACGUGUGCUCCGUUGAAUGGAGUUUAUCAUG [C54U C69U A73U G92U C114G C125U] and GGAUCUUCUCGAUCUAACAAAAAAGACAAAUCUGCCACAAAGCUUGAGAGCAUUUUCGGAUGCAGAGGCGGGAGCCUUCGGUGGCGCGAUAGCGCCAACGUUCUCAACUAUGACACGCUAAACGCGUGCUCCGUUGAAUGGAGUUUAUCAUG [C54U C72G A119U] cannot be ordered by “polymerase ribozyme fitness (log ratio)” value: no more than -4.2 for the first, no more than -4.2 for the second.

First: GGAUCUUCUCGAUCUAACAAAAAAGACAAAUCUGCCACAAAGCUUGAGAGCAUUUUCGGAUGCAGAGGCGGCAGGCUUCCGAGGCGUGAUAGCGCCAAGGUUCUCAACUAUGACACGCAAAACGCGUGCUCCGUUGAAUGGAGUUUAUCAUG [C54U C75G G80C U82A C87U C99G]
Second: GGAUCUUCUCGAUCUAACAAAAAAGACAAAUCUGCCACAAAGCUUGAGAGCAUUUUCGGAUGCAGAGGCGGCAGCAUUCGGUGGCGCGAUAGCGCCAACGUUCUCAACUAUGACACGCAAAACGCGUGCUCCGUUGAAUGGAGUUUAUCAUG [C54U C76A]
The “polymerase ribozyme fitness (log ratio)” value of the first is lower: no more than -4.2 for the first, -0.561 for the second.

Going from GGAUCUUCUCGAUCUAACAAAAAAGACAAAUCUGCCACAAAGCUUGAGAGCAUUUUCGGAUGCAGAGGCGGCAGCUUUCGGUGGGGCGAUAGCGCCAACGUUCUCAACUAUGACACGCAAAACGCGUGCUCCGUUGAAUGGAGUUUAUCAUG [C54U C76U C85G] to GGAUCUUCUCGAUCUAACAAAAAAGACAAAUCUGCCACAAAGCUUGAGAGCAUUUUCGGAUGCAGAGGCGGCAGCUUUCGGUGGCGCGAUAGGGCCAACGUUCUCAACUAUGACACGCAAAACGCGUGCUCCGUUGAAUGGAGUUUAUCGUG [C54U C76U C93G A150G], the “polymerase ribozyme fitness (log ratio)” value falls from -1.18 to -4.08.

GGAUCUUCUCGAUCUAACAAAAAAGACAAAUCUGCCACAAAGCUUGAGAGCAUUUUCGGAUGCAGAGGCGGCAGCCUUAGGUUGCGCGAUAGCGCCAACGUUCUCAACUAUGACACGCAAAACGCGUGCUCCGUUGAAUGGAGUUUAUCAUG [C54U C79A G83U] and GGAUCUUCUCGAUCUAACAAAAAAGACAAAUCUGCCACAAAGCUUGAGAGCAUUUUCGGAUGCAGAGGCGGCAGCCUUGGGUGGCGCGAUAGCGCUAACGUUCUCAACUAUGACACGCAAAACGCGUGCUCCGUUGAAUGGAAUUUAUCAUG [C54U C79G C96U G143A] cannot be ordered by “polymerase ribozyme fitness (log ratio)” value: no more than -4.2 for the first, no more than -4.2 for the second.

GGAUCUUCUCGAUCUAACAAAAAAGACAAAUCUGCCACAAAGCUUGAGAGCAUUUUCGGAUGCAGAGGCGGCAGCCUUUGGUGGCGGGUUAGCGCCAACGUUCUCAUCUAUGACACGCAAAACCCGUGCUCCGUUGAAUGGAGUUUAUCAUG [C54U C79U C87G A89U A107U G124C] and GGAUCUUCUCGAUCUAACAAAAAAGACAAAUCUGCCACAAAGCUUGAGAGCAUUUUCGGAUGCAGAGGCGGCAGCCUUCGGUGGAGCGAUAGCGCCAACGUUCUCAACUAUGACACGCAAAACGGGUGCUCCGUUGAAUGGAGCUUAUCAUG [C54U C85A C125G U144C] cannot be ordered by “polymerase ribozyme fitness (log ratio)” value: no more than -4.2 for the first, no more than -4.2 for the second.

GGAUCUUCUCGAUCUAACAAAAAAGACAAAUCUGCCACAAAGCUUGAGAGCAUUUUCGGAUGCAGAGGCGGCAGCCUUCGGUGGAGCGAUAGCGCCAACGUUCUCAACUAUGACACGCAAAACGCGUACUCCGUUGAAUGGAGGUUAUCAUG [C54U C85A G128A U144G] and GGAUCUUCUCGAUCUAACAAAAAAGACAAAUCUGCCACAAAGCUUGAGAGCAUUUUCGGAUGCAGAGGCGGCAGCCUUCGGUGGAGCGAUAGCGCCAACGUUCUCAACUAUGACACGCAAAACGCGUGCUCCAUUGAAUCGAGUUUAUCAUG [C54U C85A G133A G140C] cannot be ordered by “polymerase ribozyme fitness (log ratio)” value: no more than -4.2 for the first, no more than -4.2 for the second.

GGAUCUUCUCGAUCUAACAAAAAAGACAAAUCUGCCACAAAGCUUGAGAGCAUUUUCGGAUGCAGAGGCGGCAGCCUUCGGUGGGGCGUUAGCGCCAACGUUCUCAACUAUGACAAGCAAAACGCGUGCUCCGUUGAAUGCAGUUUAUCAUG [C54U C85G A89U C116A G141C] and GGAUCUUCUCGAUCUAACAAAAAAGACAAAUCUGCCACAAAGCUUGAGAGCAUUUUCGGAUGCAGAGGCGGCAGCCUUCGGUGGGGGGAUAGCGCCAACGUUCUCAACUAUGACACGCAAAACGCGUGCUCCGUUGAAUGGAGUUUAUCAUG [C54U C85G C87G] cannot be ordered by “polymerase ribozyme fitness (log ratio)” value: no more than -4.2 for the first, no more than -4.2 for the second.

GGAUCUUCUCGAUCUAACAAAAAAGACAAAUCUGCCACAAAGCUUGAGAGCAUUUUCGGAUGCAGAGGCGGCAGCCUUCGGUGGGGCGAUAGCGCCAACGUUCUCAACUAUGACACGCAAAACGCGAGCUCCGGUGAAUGUAGUUUAUCAUG [C54U C85G U127A U134G G141U] and GGAUCUUCUCGAUCUAACAAAAAAGACAAAUCUGCCACAAAGCUUGAGAGCAUUUUCGGAUGCAGAGGCGGCAGCCUUCGGUGGCGGGAUAGCGCCAACGUUCUCAACUAUGACACGCAAAACGCGUGCUCCGUUGAAUGGCGUUUAUCAUG [C54U C87G A142C] cannot be ordered by “polymerase ribozyme fitness (log ratio)” value: no more than -4.2 for the first, no more than -4.2 for the second.

For GGAUCUUCUCGAUCUAACAAAAAAGACAAAUCUGCCACAAAGCUUGAGAGCAUUUUCGGAUGCAGAGGCGGCAGCCUUCGGUGGCGUGAUACCGCCAACGUUCUCAACUAUGACACGCAAAACGCGUGCUCCGUUGAAUGGAGUUUAUCAUG [C54U C87U G92C], the “polymerase ribozyme fitness (log ratio)” value was -0.365.

— the RNAGym collection of RNA variant scans (doi:10.1073/pnas.2313332121)
